# Reference: PubChem BioAssay AID445 (National Center for Advancing Translational Sciences (NCATS), 2006)
# Screen size: about 110,000 compounds; about 40 (0.04%) were called active. Inconclusive results, whose numbers are uncertain, are shown with a selection of clear calls. Calls follow the shape of the dose curve; as a rule, active = well fitted curve in the direction sought with a large enough effect in the signal ratio (not every such curve was filed as active); inconclusive = small, poorly fitted or top-dose-only effect, or a change in a side signal; inactive = flat fitted curve, though single readings scatter; the % refers to the signal ratio. Potencies of inconclusive entries are doubtful fits and often do not repeat.
# Test: IkB Signaling
# Conditions: ABC-DLBCL IkBa-CBG/CBR dual luciferase ratio (green luciferase fused to IkBa over red control in OCI-Ly3 lymphoma cells), 4 h; IkBa stabilization activation: at 57.1 µM (top of the series), scaled: untreated 0%, proteasome inhibitor 100% unless noted
# Outline: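 Curves were fitted separately to fusion (green), unfused (red) and ratio luminescence, then classed by r2, magnitude and activity. Cells: OCI-Ly3, 4 h compound plus doxycycline at 37C; 10 uM MG-132 defined full response.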
# Potency is read from the fitted curve at half-maximal effect.
Structure (SMILES),IkBa stabilization activation,Potency
CCc1ccc2occ(CC(=O)Nc3ccc(OC)c(Cl)c3)c2c1,inconclusive: 1.86% [signal inhibitor],
CCOc1ccc(C(=O)Oc2c(Sc3ccccc3)c(C)nn2C(C)(C)C)cc1OCC,inactive,
O=C(CSc1cccc(C(F)(F)F)c1)NC(=O)NCc1ccco1,,"inconclusive: 15.8 µM [signal inhibitor, partial curve]"
COc1ccc(CN(Cc2ccco2)C(=O)COc2ccccc2OC)cc1,inconclusive: 3.05% [signal inhibitor],
CCc1ccccc1-n1cnc2cc(C(=O)NC3CCCCCC3)ccc21,inconclusive: -0.00678% [signal inhibitor],
Cc1ccc(O)c(-c2cc3ccccc3[nH]2)c1,inactive,
O=C(Nc1ccccc1Cl)[C@H](CSCc1ccccc1)N1Cc2ccccc2C1=O,inconclusive: 2.27% [signal inhibitor],
O=C(c1ccc2c(c1)CCN2S(=O)(=O)c1ccccc1)N1CCN(c2ccccc2F)CC1,inconclusive: -0.485% [signal inhibitor],
CCOC(=O)C(CC)N1CCN(Cc2ccc(F)cc2)C(=O)C1=O (stereo unspecified),inactive,
COc1ccccc1NC(=O)CSc1nnc(-c2ccc(C)cc2)o1,,"inconclusive: 5.01 µM [signal inhibitor, partial curve]"
COc1ccc(-c2ccc(NS(=O)(=O)c3cc(C)c(C)cc3C)cc2)nn1,inconclusive: 1.98% [signal inhibitor],
Clc1ccc(CCNC(c2ccc(Cl)cc2)c2nnc(-c3ccccc3)o2)cc1 (stereo unspecified),,inconclusive: 0.794 µM [signal inhibitor]
COc1ccc(N2CCN(C(=O)C(C)n3nc(C)c4sc5ccccc5c4c3=O)CC2)cc1 (stereo unspecified),inactive,
Cc1ccc2[nH]c(=O)c(CN(CCCN3CCOCC3)C(=O)Nc3cccc(Cl)c3)cc2c1,inconclusive: 1.42% [signal inhibitor],
CCCCOc1ccc(C(=O)Nc2cccc(C)n2)cc1,inconclusive: 9.86% [signal inhibitor],
NS(=O)(=O)c1ccc(N=Nc2nc3[nH]cnc(=S)c3[nH]2)cc1,"inactive: 6.41% [at 11.4 µM, scaled: untreated 0%, proteasome inhibitor 100%]",
CCOC(=O)c1c(S(=O)(=O)N2CCCC(C(=O)N3CCN(c4cc(C)ccc4C)CC3)C2)c(C)n(C)c1C (stereo unspecified),inconclusive: -1.28% [signal inhibitor],
O=S(=O)(c1ccc(Cl)cc1)c1nc(-c2cccs2)oc1SCc1ccccc1F,inactive,
Cc1cc(C)cc(OCCSc2nc3ccc(NC(=O)COc4ccccc4)cc3s2)c1,inconclusive: 1.16% [signal inhibitor],
CCCc1cc(C(=O)NCCc2ccccc2)no1,,"inconclusive: 12.6 µM [signal inhibitor, partial curve]"
Cc1ccc(OCC(=O)Nc2nonc2-c2ccc(Br)cc2)cc1C,inactive,
Cc1cc(C)n(-c2nc(NCC3CCCO3)c3c4c(sc3n2)COC(C)(C)C4)n1 (stereo unspecified),inactive,
O=S(=O)(NCCc1csc(-c2cccc(F)c2)n1)c1cc(F)ccc1F,inactive,
Cc1ccccc1Cn1c(SCc2ccc(C(=O)N3CCCCC3)cc2)nc2ccncc21,inconclusive: 0.252% [signal inhibitor],

Structure (SMILES),IkBa stabilization activation,Potency
CCCOc1ccc(OC(=O)c2ccc(-c3ccc(CCC)cn3)cc2)cc1,,"inconclusive: 2 µM [signal inhibitor, full curve]"
CC1CCc2c(sc3nc(SCC(=O)NCc4ccco4)nc(N)c23)C1 (stereo unspecified),,"inconclusive: 25.1 µM [signal inhibitor, partial curve]"
O=C1CCc2cc(S(=O)(=O)NCc3ccccc3)cc3c2N1CC3,inconclusive: 0.64% [signal inhibitor],
COc1ccc(CCNC(=O)c2cc(Nc3ccccc3)nc3ccccc23)cc1OC,inconclusive: 15.4% [signal inhibitor],
CCOC(=O)c1cc(-c2ccco2)nc2c1c(C)nn2-c1ccccc1,inactive,
COc1ccc(S(=O)(=O)Nc2cc(C)on2)cc1OC,inactive,
Cc1cc(SCC#N)n2nc(C)c(-c3ccccc3)c2n1,inactive,
COc1ccc(OC)c(C2=Nn3c(nnc3-c3cccc(OC(C)C)c3)SC2)c1,inactive,
COc1ccccc1N1CCN(C(c2ccc(F)cc2)c2nnnn2C(C)C)CC1 (stereo unspecified),inactive,
Cc1ccc(NC(=O)Cn2c(=O)n(Cc3ccc(F)cc3)c(=O)c3cccnc32)cc1C,inactive,
O=C(Nc1ccc(S(=O)(=O)N(Cc2ccccc2)c2ccccc2)cc1)c1ccccc1F,inconclusive: -1.66% [signal inhibitor],
CCCn1ccc2c(OCC(=O)Nc3ccccc3C(=O)OCC)cccc2c1=O,inconclusive: 3.36% [signal inhibitor],
O=C(Nc1ccccc1C(=O)NCc1ccccc1)c1ccco1,inconclusive: 0.037% [signal inhibitor],
COC(=O)c1ccccc1NC(=O)CCCn1c(C)c2cnn(-c3ccccc3)c(=O)c2c1C,inconclusive: -2.03% [signal inhibitor],
CC1(C)Cc2c(sc(NC(=O)c3ccco3)c2C#N)CO1,inactive,
Oc1ccccc1-c1nc2cnccn2c1Nc1ccc(Cl)cc1,inconclusive: -0.751% [signal inhibitor],
COc1ccc(CNC(=O)CN2C(=O)COc3ccccc32)c(OC)c1,inconclusive: 1.72% [signal inhibitor],
Cc1ccc2nc(NC(=O)CSc3cc(C)[nH]c(=O)n3)sc2c1,inconclusive: -0.156% [signal inhibitor],
COc1ccc(-c2nn3c(-c4ccccc4)nnc3c3ccccc23)cc1,inconclusive: 1.58% [signal inhibitor],
Cc1cc(C)n(-c2ccn(Cc3ccc(Cl)cc3Cl)c(=O)n2)n1,inactive,
Cc1ccc(C)c(-n2nnnc2SCC(=O)Nc2cccc(-c3nnc4n3CCCCC4)c2)c1,inconclusive: 1.48% [signal inhibitor],
CCOc1ccc(C(=O)N2CCc3cc(OC)c(OC)cc3C2COc2ccc3c(C)cc(=O)oc3c2)cc1OCC (stereo unspecified),inactive,
Cc1nn(Cc2ccc(Cl)c(Cl)c2)c(C)c1NC(=O)c1cc(-c2ccc3c(c2)OCO3)on1,inconclusive: 1.65% [signal inhibitor],
Cc1cccc(N2CCN(C(=O)Cn3c(C)c4cnn(-c5ccccc5)c(=O)c4c3C)CC2)c1C,inconclusive: 1.87% [signal inhibitor],

Structure (SMILES),IkBa stabilization activation,Potency
Cc1ccc(N2C(=O)[C@@H]3[C@H](C2=O)C2c4ccccc4C=CN2[C@@H]3C(=O)c2ccco2)c(C)c1 (stereo partly specified),inconclusive: 6.47% [signal inhibitor],
COc1ccc(CNC(=O)C(=O)NCC(c2ccco2)S(=O)(=O)c2cccs2)cc1 (stereo unspecified),inactive,
CCSc1nnc(C)n1-c1ccc(C(=O)O)cc1,inactive,
Cc1ccc(NC(=O)c2ccc3c(O)c(S(=O)(=O)c4ccc(Cl)cc4)c(=O)[nH]c3c2)cc1,inactive,
CCOC(=O)C1CCCN(C(=O)Cn2ncc3c(C)n(Cc4ccc(Cl)cc4)c(C)c3c2=O)C1 (stereo unspecified),inconclusive: 2.63% [signal inhibitor],
Cc1ccc(NS(=O)(=O)c2ccc3c(c2)CCN3C(=O)C2CC2)c(C)c1,inconclusive: -0.427% [signal inhibitor],
C=C(C)Cn1c(SCC(=O)c2ccc(Br)cc2)nc2sc3c(c2c1=O)CCCC3,inconclusive: 5.46% [signal inhibitor],
CC(=O)c1c(C(C)=O)c(C)n(NC(=O)c2cccnc2)c1C,,"inconclusive: 39.8 µM [signal inhibitor, partial curve]"
Cc1ccc(S(=O)(=O)c2nc(-c3cccs3)oc2SCc2ccc(F)cc2)cc1,inconclusive: -1.37% [signal inhibitor],
CC(C)c1ccccc1NC(=O)C(Cc1c[nH]c2ccccc12)NC(=O)OC(C)(C)C (stereo unspecified),inconclusive: 11.6% [signal inhibitor],
Cc1c(CN(C)C)c2c(n1C)C(=O)c1ccc(Br)cc1-2,inactive,
O=C(Nc1ccc(CCC(=O)N2CCCC2)cc1)c1ncn[nH]1,inactive,
Cc1cccc(Nc2nnc(SCc3cn4ccsc4n3)s2)c1,inconclusive: 0.854% [signal inhibitor],
CCOC(=O)c1ccc(Nc2c(-c3ccc(OC)cc3)nc3nc[nH]n23)cc1,inconclusive: 5.64% [signal inhibitor],
CCOc1ccc(S(=O)(=O)Nc2ccc3c(c2)CCCN3C(=O)c2cccs2)cc1,inconclusive: 1% [signal inhibitor],
Cc1ccccc1Cn1c(=O)n(Cc2ccco2)c(=O)c2sc3ccccc3c21,inactive,
CCN(CC)C(=O)C1=C(C)Nc2nc3ccccc3n2C1c1ccccc1F (stereo unspecified),inactive,
CCOC(=O)c1cc2c(=O)n3ccccc3nc2n(CCCOC)c1=NC(=O)c1c(-c2c(F)cccc2Cl)noc1C,inactive,
O=C(Cc1ccc(NC(=O)N2CCCCc3ccccc32)cc1)NCc1cccc(Br)c1,inconclusive: 0.34% [signal inhibitor],
COc1ccc(C(=O)Nc2cccc(OC)c2)cc1,inconclusive: 10% [signal inhibitor],
CC1=C(c2ccc(C)c(C)c2)S(=O)(=O)N=C1N1CCC(C(=O)NCc2ccc(N(C)C)cc2)CC1,inconclusive: 0.779% [signal inhibitor],
Cc1noc(C)c1-c1ccc2ncnc(NCc3cccs3)c2c1,"inconclusive: 16.1% [signal activator] [at 11.4 µM, scaled: untreated 0%, proteasome inhibitor 100%]",
CCOc1ccccc1N1CCN(S(=O)(=O)c2cccs2)CC1,inactive,
